Read counts are not given, so values of variants with three or more changes are uncertain.

B1: CPEB3 Ribozyme (parent)
chain: UAACAGGGGGCCACAGCAGAAGCGUUCACGUCGCAGCCCCUGUCAGAUUCUGGUGAAUCUGCGAAUUCUGCUGUAUAUCUC

In this data set the parent is B1. As to the kind of experiment: self-cleavage, relative activity (ratio to wild type); higher = more cleavage; in vitro, sequencing. The procedure, abridged:
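Libraries of CPEB3 self-cleaving ribozyme mutants came from rounds of error-prone PCR and carried barcodes, which DNA sequencing matched to variants. In vitro transcription used T7 RNA polymerase at 37°C for 5 hours, with a further 15 min in DNase I before EDTA stopped the reaction; the ribozymes cleaved during both steps. The RNA was reverse transcribed with template switching and sequenced on Illumina. Relative activity is the cleaved/total read fraction of a variant divided by that of the unmutated ribozyme, averaged over three batches with at least 5 reads.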
With UAACAGGGGGCCACAGCGGAAGCGUUCACGUCGCAGCCCCUGUCAGAUUCUGGUGAAUCUGCGAGUUCUGCUGUAUUUCUU [A18G A65G A77U C81U], the self-cleavage was found to be 0.38.
Take UAACAGGGGGCCACAGCGGAAGCGUUCACGUCGCAGCCCCUGUCUGAAUCUGGUGAAUCUGCGAAUUCUGCUGUACACCUC [A18G A45U U48A U76C U78C]: the self-cleavage worked out at 0.16.
The same measure for UAACAGGGGGCCACAGCGGAAGAGUUCACGUCGCAGCCCCUGUCAGAUUCUGGUGAAUCUGCGAAUUCUGCUGUAUAACUC [A18G C23A U78A]: 0.31; for UAACAGGGGGCCACAGCGGAAGCGUUCACGUCGCAGCCCCUGUCUGAUUCUGGUGAAUCUGCGAAUUCUGCUGUAUAACUC [A18G A45U U78A]: 0.43; for UAACAGGGGGCCACAGCGGAAGCGUUCAGGUCGCAGCCCCUGUCAGAUUCUGGUGAAUCUGCGAAUUCUGCUGUCUACCUC [A18G C29G A75C U78C]: 0.07.
Turning to UAACAGGGGGCCACAGCGGAAGUGUUCACGACGCAGCCCCAGUCAGAUUCUGGUGAAUCUGCGAAUUCUGCUGUAUAUCUC [A18G C23U U31A U41A], the self-cleavage was 0.22.
The same measure for UAACAGGGGGCCACAGCGGAAGCGUUCACGUCGCAGCCCCUGUCAGAUUCUGGUGAAUCUGCGUAUACUGCUGUAUAUCUC [A18G A64U U67A]: 0.21.
The same measure for UAACAGGGGGCCACAGCGGAAGCGUUUACGUCGCUGUCCCUGUCAGAUUCUGGUGAAUCUGCGUAUACUGCUGUAUUUCUC [A18G C27U A35U C37U A64U U67A A77U]: 0.04.
For UAACAGGGGGCCACAGCGGAAGCGUUCAUGUCGCAGCCCCUGUCAGAUCCUGGUGAAUCUGCGAAUUCCGCUGUAUGUCUC [A18G C29U U49C U69C A77G], the self-cleavage was determined as 0.21.
Next, UAACAGGGGGCCACAGCGGAAGCGUUCACGUCGCAGCCCCUGUCUGAUUCGGGUGAAUCCGCGAACUCUGCUGUAUAUCUC [A18G A45U U51G U60C U66C]: 0.13; UAACAGGGGGCCACAGCGGAAGCGUUCACGUUGCAGCCCCUGUCAGAUUCUGGUGAAUCUGCGAAUUCUACGGUAUAUCUC [A18G C32U G70A U72G]: 0.06.
Next, UAACAGGGGGCCACAGCGGAAGCGUUCACGUCGCAGCCCCUGUCAGAUUCUGGUGAAUCUGCGAAUUCUGCUGUAUCUCCC [A18G A77C U80C]: 0.72.
The same measure for UAACAGGGGGCCACAGCGGAAGCGUUCACGUCGCAGCCCCUGUCUGAUUCUGGUGAAUCUGCGAGUUCUGCUGUAUUUCUC [A18G A45U A65G A77U]: 0.09; for UAACAGGGGGCCACAGCGGAAGCGUUCACGUCGCAGCCCCUGUCAGAUUCUGGUGAGUCUGCGAAUUCUGCUGUACACCUC [A18G A57G U76C U78C]: 0.44.
In the case of UAACAGGGGGCCACAGCGGAAGCGUUCAUGUCGCAGCCCCUGUCAGAUCCUGGUGAUUCUGCGAAUUCUGCUGUAUAUCUC [A18G C29U U49C A57U], the self-cleavage was determined as 0.13.
Next, UAACAGGGGGCCACAGCGGAAGCGUUCACGUCGCAGCCCCUGUCAGAUUCUGGUGAAUCUGCGAGUUCUGCUGUAUACCUC [A18G A65G U78C]: 0.32; UAACAGGGGGCCACAGCGGAAGCGUUCACGUCGCAGCCCCUGUCAGAUUCUGGUGUAUCUGCGAAUUCUGCAGUAUAUCUC [A18G A56U U72A]: 0.17.
Next, UAACAGGGGGCCACAGCGGAAGCGUUCACGUCGCAGCCCCUGUCAGAUUCUGGUGUAUCUGCGAAUUCGGCUGUAUAUCUC [A18G A56U U69G]: 0.29; UAACAGGGGGCCACAGCGGAAGCGUUCACGUCGCAGCCCCUGUCAGAUUCUGGUGGAUCCGCGAAUUCUGCUGUAUAUCUC [A18G A56G U60C]: 0.24.
As for UAACAGGGGGCCACAGCGGAAGCGUUCAUGUCGCAGCCCCCGUCAGAUUCUGGUGAAUCUGCGAAUUAAGCUGUAUAUCUC [A18G C29U U41C C68A U69A], the self-cleavage was determined as 0.1.
UAACAGGGGGCCACAGCGGAAGCGUUCACGUCGCAGCCCCUGUCAGAUUCUGGUGGAUCUGCGAUUUCUGCUGUAUAUCUC [A18G A56G A65U]: the self-cleavage was 0.1.
The same measure for UAACAGGGGGCCACAGCGGAAGCGUUCACGUCGCAGCCCCUGUCUGAUUCUGGGGAAUCUGCGAAUUCUGCUGUAUAUCUC [A18G A45U U54G]: 0.31; for UAACAGGGGGCCACAGCGGAAGUGCUCACGACGCAGCCCCAGUCAGUUUCUGGUGAAUCUGCGAAUUCUGCCGUAUAUCUC [A18G C23U U25C U31A U41A A47U U72C]: 0.1; for UAACAGGGGGCCACAGCGGAAGCGUUCAAGUCGCAGCCCCUGUCAGAUUCCGGUGAAUCUGCGAAUUCUGCUGUGUAUCUC [A18G C29A U51C A75G]: 0.17.
The same measure for UAACAGGGGGCCACAGCGGAAGCGUUCACGUCGCAGCCCCUGUCAGAUUCUGGUGGAUCUGCGAAUACUGCUGUAUAUCUC [A18G A56G U67A]: 0.32; for UAACAGGGGGCCACAGCGGAAGCGUUCACGUCGCAGCCCCUGUCAGAUUCUGGUGGAUCUGCGAAUUCUGCCGUAUACCCC [A18G A56G U72C U78C U80C]: 0.49.
The same measure for UAACAGGGGGCCACAGCGGAAGCGUUCACGUCGCAGCCCCUGUCAGAUUCUGGUGAAUCUGCGAGUUCUGCUGUAUACCAC [A18G A65G U78C U80A]: 0.17; for UAACAGGGGGCCACAGCGGAAGCGUUCACGUCGCAGCCCCUGUCUGAUUCUGGUGUAUCUGCGAAUUCUGCUGUAUAUCAC [A18G A45U A56U U80A]: 0.26.
As to UAACAGGGGGCCACAGCGGAAGCGUUUACGUCGCAGCCCCUGUCAGAUUCUGGUGAAUCUGCGAAUUCUGCUGCAUAUCUC [A18G C27U U74C], the self-cleavage was found to be 0.27.
Next, UAACAGGGGGCCACAGCGGAAGCGUUCAUGUCGCAGCCCCGGUCAGAUUCUGGGGAAUCUGCGAAUUCUGCUGUAUAUCUC [A18G C29U U41G U54G]: 0.07; UAACAGGGGGCCACAGCGGAAGCGUUCACGUCGCAGCCCCUGUCAGAUUCUGGUGAAUCUGCGUAUUCUGCUGUAUUUCUC [A18G A64U A77U]: 0.27.
Take UAACAGGGGGCCACAGCGGAAGCGUUCACGUCGCAGCCCCUGUCAGAUUCUGGUGUAUCUGCGGAUUCUGCUGUAUAUCUC [A18G A56U A64G]: the self-cleavage was 0.23.
Next, UAACAGGGGGCCACAGCGGAAGCGUUCACGUCGCAGCCCCUGUCAGGUUCCGGUGAAUCUGCGAAUUCUGCUGUACAUCUC [A18G A47G U51C U76C]: 0.15.
In the case of UAACAGGGGGCCACAGCGGAAGCGUUCACGUCGCAGCCCCUGUCUGAUUCUGGUGGGUCUGCGAAUUCUGCUGUAUAUCUC [A18G A45U A56G A57G], the self-cleavage was 0.19.

For the origin of these results see the RNAGym collection of RNA variant scans (doi:10.1093/nar/gkz1192).
